# The name of at least one read-out is uncertain.
# Tested on: VR callus derived from European grape
# Test: Anthocyanin content of grape calluses treated with amino acids
# Assay type: cell-based, Vitis vinifera L.
# Conditions: 5 mM amino acid in MS agar medium, 5th day after transfer; positive control 100 μM abscisic acid (ABA) taken as 100%
# Procedure: A cell line (VR, management number RPC00003) derived from European grape (Vitis vinifera L.) and stored in the Institute of Physical and Chemical Research, BioResource Center was subcultured on the MS agar medium. The subcultured VR callus was transferred to the MS agar medium containing a 5 mM solution of a different amino acid, and cultured. For the positive control, abscisic acid (ABA), for which coloring-promoting effect is known, was used at 100 μM (Jeong et al., Plant Science, 167:247-252, 2004). On the 5th day after the transfer, the callus was lyophilized and ground, and anthocyanin was extracted from it by using a 1% HCl/MeOH solution. Absorbance of the extract was measured at 530 nm, and the content of anthocyanin was measured by using cyanidine 3-glucoside as a standard substance.
# (2) In the same manner as described above, anthocyanin content of grape calluses treated with isoleucine and proline, respectively, were measured.
row,SMILES,Relative anthocyanin content [%]
1,"NC(=O)C[C@H](N)C(=O)O [Asn, asparagine]",38
2,"N[C@@H](CC(=O)O)C(=O)O [Asp, aspartic acid]",11
3,"CC[C@H](C)[C@H](N)C(=O)O [Ile, L-isoleucine]",76
4,"N[C@@H](CO)C(=O)O [Ser, serine]",38
5,"CC(C)[C@H](N)C(=O)O [Val, valine]",6
6,"N[C@@H](Cc1c[nH]cn1)C(=O)O [His, histidine]",29
7,"NC(=O)CC[C@H](N)C(=O)O [Gln, glutamine]",18
8,"N[C@@H](Cc1ccccc1)C(=O)O [Phe, phenylalanine]",40
9,"CC(C)C[C@H](N)C(=O)O [Leu, leucine]",30
10,"N[C@@H](CS)C(=O)O [Cys, cysteine]",6
11,"C[C@H](N)C(=O)O [Ala, alanine]",7
12,"N[C@@H](CCC(=O)O)C(=O)O [Glu, glutamic acid]",4
13,"C[C@@H](O)[C@H](N)C(=O)O [Thr, threonine]",35
